# Results taken from publication PMC10668032.
# The list shows a part of the results. At the low end of the ranking the order means little.
# Target: SIX1-Q177R homeodomain (UniProt Q15475)
# Assay: universal protein binding microarray
# Conditions: Universal all-10-mer PBM (8x60K, AMADID 030236), 300 nM GST-tagged protein, Alexa Fluor 488 anti-GST; buffer, salt, pH and temperature not stated; high values mean tight binding; most listed sequences are background and not binding sites; double strand, one strand shown
row,Sequence,binding signal [E-score]
1,ATCTGTGG,-0.116
2,CAGGGGAC,-0.00816
3,GTAACCAA,-0.00116
4,AACCTACT,0.051
5,GTTTAAAC,0.344
6,ACCTTACA,0.192
7,ATTTTTAA,-0.192
8,AGCCAGCC,-0.179
9,GGATCGGA,0.00024
10,CTACGAGA,-0.168
11,AGCTTGTC,-0.208
12,CTTAGCCA,-0.119
13,ATCTAACA,0.0933
14,CCGCTGAC,0.0373
15,GACTATAA,-0.101
16,CCTCCCAG,0.11
17,CGGGTGAC,0.0886
18,AGCCCGCA,-0.0273
19,ATATATTA,-0.124
20,CCGCCTGC,0.0146
21,CGCGATAA,-0.258
22,ACGCATAT,-0.00685
23,CATGAACG,-0.0505
24,CGTCGTGA,-0.155
25,AGAGAGAT,-0.13

row,Sequence,binding signal [E-score]
1,AACTCTCG,-0.117
2,AGCAGTAG,-0.18
3,AACCGGCA,-0.187
4,CAATGTCC,-0.247
5,ATGGAAGC,-0.281
6,CAGCGTAA,-0.065
7,GATGTGAC,-0.0984
8,GTAACAAA,-0.184
9,GTCCCAAC,-0.0172
10,CAGGACGC,-0.0546
11,ACTTTATC,-0.119
12,AGTCGAAA,0.0186
13,AATTTGGC,-0.347
14,GAGCATTA,-0.164
15,CGCCGGCC,-0.0608
16,AGATGGTG,0.273
17,ATGCACCG,0.117
18,ATTTTTCA,-0.239
19,ATTCAGCC,-0.103
20,AGGACGGG,0.0231
21,TACCTCGA,0.098
22,AGGCCGTG,0.0698
23,GCAGATAC,0.12
24,CCTACATA,-0.0752
25,ACCTGCTG,-0.0675

row,Sequence,binding signal [E-score]
1,AGGGACAA,-0.25
2,GGTTCGGA,0.0871
3,ATGCCGTC,-0.0629
4,AAACGTTG,-0.27
5,CACCGTCC,0.276
6,CTGTTACC,-0.0154
7,ATCATTTC,-0.205
8,CCAGCAGC,-0.0473
9,CATTTATC,-0.306
10,CTGAACAC,0.422
11,GGACAGAA,-0.24
12,CCACTCAG,0.106
13,CTGTGCGA,-0.222
14,GGTATGTA,0.222
15,GCAACGAA,-0.201
16,TAGACAGA,-0.263
17,ACGAAACC,-0.0585
18,ACAATCTC,-0.142
19,ACCCAGCT,0.0773
20,CTACAGGC,-0.202
21,GAGAGTCA,0.0452
22,AATTGCGC,-0.0634
23,ACGGAGCG,-0.000245
24,ACTAGCGA,-0.136
25,GTCAGCTA,-0.0689

row,Sequence,binding signal [E-score]
1,AGCTTGGA,-0.316
2,GCCTGCAA,-0.201
3,AGGAGGGG,0.111
4,ATCGGCAT,-0.194
5,TCGGCTAA,-0.213
6,CTCCCCGC,0.168
7,ACTACCCA,0.105
8,CGTCAACG,-0.0236
9,AGCACGCC,0.0699
10,CTGCGTTC,-0.215
11,CATAATAC,-0.0523
12,CCTGCCAC,-0.00817
13,CCTCCGGC,-0.0745
14,TAAATACA,0.129
15,GCGGTGAC,0.00363
16,ACTGCAAT,-0.0602
17,CCAGTCCG,-0.224
18,CAACGCGG,0.0978
19,CCCTCAGA,0.0322
20,ACCCCACA,0.267
21,CACCTTCG,0.315
22,CAAGAATA,-0.129
23,CCGCTAAG,-0.0137
24,CTTACGCA,-0.136
25,AAGCCGGT,-0.0766

row,Sequence,binding signal [E-score]
1,AGCAGACA,0.0995
2,GAGTTGCC,0.0854
3,GGAGTTAA,0.266
4,AATGTGTA,0.078
5,CCTAATGA,-0.126
6,CTACAGGA,0.0365
7,CTGTATCA,-0.195
8,AATAGTCC,-0.155
9,ATGCGGCC,-0.0153
10,ACGGTGGG,0.0981
11,GCAGTTGA,-0.153
12,ATAGACTA,-0.042
13,AAATTGCC,-0.098
14,CAGATGCA,-0.327
15,CCCTTCAG,0.044
16,ACGTGGCT,-0.327
17,AGATGGGA,-0.0871
18,CTCGCACC,0.13
19,CGAATTAA,-0.0591
20,AATTTTCC,0.00396
21,ACGACCAA,-0.00915
22,CCCCGTTC,0.136
23,CTCCCAGC,-0.185
24,ACTAAGGG,0.1
25,GCAAATGC,-0.101

row,Sequence,binding signal [E-score]
1,GAAACCTC,0.093
2,GGAAGAGA,-0.141
3,GGTAATGA,-0.0681
4,ATAGCCCA,-0.215
5,CAAAAATA,-0.184
6,CCGTGTTA,0.424
7,GCGATCCA,-0.0242
8,CTTTCCAC,-0.107
9,CCAAACTA,-0.0317
10,CTCGTCAC,0.00048
11,AATACGTA,-0.0649
12,ATAAGAAA,-0.157
13,CGCCTTCC,-0.0204
14,GCCGAAGA,-0.242
15,AACGACAA,-0.0802
16,ATCCCGCA,0.0334
17,CTTTGGCA,-0.058
18,GCTGAAAA,-0.164
19,GACTTGAC,-0.228
20,ATTCTCTG,-0.375
21,GTGAGAAC,-0.123
22,ATGAATAG,-0.0309
23,AGTATTTG,-0.155
24,GTCGAGAA,-0.162
25,GAGAACAC,0.381

row,Sequence,binding signal [E-score]
1,CCTCGCGA,-0.0337
2,AACTTCGC,-0.195
3,AATGATTG,-0.171
4,ATCACGCA,-0.0335
5,AACGCCTA,-0.0842
6,TAATTGTA,-0.189
7,ACACCCGA,0.457
8,CCAGCGAG,0.073
9,CTAATGGC,-0.203
10,TGTATACA,0.283
11,ATACTGCC,-0.0409
12,CATCTCGC,-0.137
13,CTTAATGA,0.0521
14,CCCTTTGC,0.219
15,CGGCTTTC,-0.108
16,ACAACACA,0.232
17,GCCGCGAC,0.000915
18,CCCAATAA,-0.11
19,TCGCCACA,0.0792
20,AGCGTAAC,-0.126
21,CCCGTAGA,0.112
22,CCCAACAG,-0.0329
